Experimental data reported in PMC12136788.
The other results are listed elsewhere or left out.

B1: 35767628_35771549_484_CDS_ENSMUSG00000020590_ENSMUST00000048519|mouse|control|control (ssRNA)
RNA: GGGAGUUCUACAGUCCGACGAUCGGAAAACUGGAUAACUUGCUGGAGAGGCUCAUCAAUUAUAUUGGCACCCGUCAAUCUUCUGUCAAUCUUUAUAGUCCUGGCUUCGCGUUUCAUUUCUUCUAAGCACUUAGGAACCCCAGACAACAGAGGAUUGAGCAUCA
B2: chr2:181367561:181367562:+_ENSMUSG00000002455_ENSMUST00000002529|mus_mus|motif|central (ssRNA)
RNA: GGGAGUUCUACAGUCCGACGAUCAACACGCUUCUUUGCUCGAAUGUCUGUUUCUAGCUCUGCUGCUCUGAUGUAAAUCCGGACAGACUGCGGGAGAUGACGGACAGCUUGUGCCACCACAGCCUUGGCUGUGUCCCCAGGCUGCAACAGAGGAUUGAGCAUCA
B3: chr6:114281168:114281169:-_ENSG00000196591_ENST00000368632|hu_hu|hu_hu_hu_mus_True|98_98 (ssRNA)
RNA: GGGAGUUCUACAGUCCGACGAUCUUCCAUUUUUCGGUAUAAGCCAUAAUUUAGCAGCAAGUUAUGAGUCAUCCGGAUUCUAUGAGGCUUCAUGGGAUGACCCUGGCCAUAAUAAUAAUUGCCAAUAUCACCAUCAUAGUAGUACAACAGAGGAUUGAGCAUCA
B4: chr1:60041781:60041782:+_ENSMUSG00000041040_ENSMUST00000036540|mus_hu|mus_mus_mus_hu_False|68_78 (ssRNA)
RNA: GGGAGUUCUACAGUCCGACGAUCAAGUUUACAAUAGUAAAGUAAAUGCAGUAGUGGAAUGGCAAGUUUACUUUAGUUUCACAAAAGAAAAUCUUUAUAACCCAGUCCUAGUCUUGGACAUAGUGAAAGCUAUAAAUUCUGACUCAACAGAGGAUUGAGCAUCA
B5: 19566710_19568278_1164_3pUTR_ENSG00000072210_ENST00000579855|human|control|control (ssRNA)
RNA: GGGAGUUCUACAGUCCGACGAUCAAUCAUCCGUUUGAUGAGCUUAUGGUUAUGCGAAAAUACAUAAAGAGCCAGAGGCUUUUCACGUUCAUUUAUGAAAUUUAUGGCCUCAUCUACAUUUUUCACAGGCACUAUUGGAAGAAUCAACAGAGGAUUGAGCAUCA
B6: chr9:121621712:121621713:+_ENSMUSG00000032526_ENSMUST00000035113|mus_hu|FALSE|FALSE (ssRNA)
RNA: GGGAGUUCUACAGUCCGACGAUCUUUUGAAGUGCUGGUUGGACUGGCAUCUGCAAUGGUAGCCAAAUAAAUGAGAUUUCUAUGUAACACAUGCUGGUACUGCACGCACUCGUUCCCGCGGCCCUUGUUCUGAUACUCCACAAUCAACAGAGGAUUGAGCAUCA
B7: chr5:135513207:135513208:+_ENSG00000113658_ENST00000545279|hu_hu|motif|central (ssRNA)
RNA: GGGAGUUCUACAGUCCGACGAUCAAUGUAAGCUCACAGUAUCUGUACUCAAAGUUUCUCUAAAAUUAAAACAAGUCCACGGACAAUAUAAUUGAAAAGAAUACUUCUGCAUUAUGAAACAGAAGAUAUGGGGUUCAGAGGGGACAACAGAGGAUUGAGCAUCA
B8: chr5:33459820:33459821:+_ENSG00000113407_ENST00000502553|hu_hu|motif|central (ssRNA)
RNA: GGGAGUUCUACAGUCCGACGAUCCCAGAGUCGGCUGUUGAAGAUGUUUGGGGUGACUACCUCCUGGAAUCCUCUUUUCCGGUAUUCGCUCCUAAUGAAUUCAAUAAGUGCAUUAUAAAUGUAGGCUCCUUUUGGCAGAAAAAACAACAGAGGAUUGAGCAUCA
B9: chr1:151206805:151206806:+_ENSG00000143398_ENST00000349792|hu_mus|FALSE|FALSE (ssRNA)
RNA: GGGAGUUCUACAGUCCGACGAUCCUUCUCCUUCUCCUUCUUGCUGGCCCUGCGCUUGUACGUGGAGCCCUUGAGGUCGAACUUAAGGUGCAUUUUGACGACACGGGGCAGCACAUUGUUCAUGACCACCACGCGGAUGUUCUUCAACAGAGGAUUGAGCAUCA
B10: 184695523_184702090_819_CDS_ENSG00000116406_ENST00000318130|human|control|control (ssRNA)
RNA: GGGAGUUCUACAGUCCGACGAUCUCUUGGAUAAGGAAGGCCACUGGUAGUGUUGAAAGCCGGUAAAAGUUUGUAACCUAACUGCUUUGCCAUUUGGAGAAGUUCAUCAUUGUACCACUGCAUAUAUUCACCUUUUUCUUUCAGCAACAGAGGAUUGAGCAUCA
B11: chr22:32879901:32879902:+_ENSG00000100225_ENST00000397426|hu_mus|hu_hu_hu_mus_False|28_78 (ssRNA)
RNA: GGGAGUUCUACAGUCCGACGAUCCUCUUCCAUACUCAUGGCAUCCUGAAUUGACUCAGCUUCAAAAUUUUGACUAGGCCCUUCCAUACUGUCAUCAGUCCAGGCAUCAGACUGGGCGGCCUGUCCUUGGGAUGAAUCAGUCCCCAACAGAGGAUUGAGCAUCA
B12: chr4:138847413:138847414:+_ENSMUSG00000028745_ENSMUST00000102508|mus_hu|FALSE|FALSE (ssRNA)
RNA: GGGAGUUCUACAGUCCGACGAUCCCGAGGGCCACCUCUGCUCCCAGAGCUGUCCCCUGUCCCCACGACCCCCAACCCCAAGCAACUCCCAAACACACACGGAAUAAGAUUUCCAGUUUUUCUUCUCUCUUUCACACACCACAGCAACAGAGGAUUGAGCAUCA
B13: chr2:216981417:216981418:+_ENSG00000079246_ENST00000392132|hu_hu|hu_hu_hu_mus_True|38_58 (ssRNA)
RNA: GGGAGUUCUACAGUCCGACGAUCCUGAUACUGGUCCUUGCCAGCAAGGGCAUUAUCAGUGCCAUCUGUGCCAUAGAGGACUAAAGCAAUCUCAUCUUUGUUCUCAGAAAAUACCUGUCGUUGGACAAACAUAGUCAUCACUUUCAACAGAGGAUUGAGCAUCA
B14: 90660486_90660606_1981_3pUTR_ENSG00000112182_ENST00000537989|human|control|control (ssRNA)
RNA: GGGAGUUCUACAGUCCGACGAUCAUGCACCGAGGUGCUCACUUGGUCACAAGCGCUGGAGGAGAAGAUCACGCUCCUCCGGUCCAGCUCUCCCUCCUGUUUACAGAGAGCCUCCAACCCAGGCCCCCUGAGGGGCGACCCCAUCAACAGAGGAUUGAGCAUCA
B15: chr14:102547831:102547832:-_ENSG00000080824_ENST00000216281|hu_hu|motif|central (ssRNA)
RNA: GGGAGUUCUACAGUCCGACGAUCCAGUGCACGUUACCCCAAUCUGUGAAAAUAAACCAACAUGAAACUCAAAAAGCAUUACGGGCUCUGCUUUAGUGCCUAAGGUAUCACAGCAUCACUUAGUAGACAGAAAUCUUAUCUUCCCAACAGAGGAUUGAGCAUCA
B16: 153781052_153781172_3566_3pUTR_ENSG00000143614_ENST00000368655|human|control|control (ssRNA)
RNA: GGGAGUUCUACAGUCCGACGAUCCAUUCCCCCCAGUGCACUCUGGCAGCUUCUGGAGCCAGAGAGGCAGGUGGGUGUACACUAUGAGAAGAGCAGAAACCCGUACCUUUAAGGGGCUUCCCUUACUUCAAAAACAGCCUGGUCCAACAGAGGAUUGAGCAUCA
B17: chr6:38652254:38652255:-_ENSG00000124767_ENST00000373365|hu_hu|hu_hu_hu_mus_False|28_68 (ssRNA)
RNA: GGGAGUUCUACAGUCCGACGAUCCGAGAACUUCAUAGCAGGGAAGUCAAGCUUCUGCAGGAGGGUCAUUCCAAGAACCCUCGUAUAAAAAUCCAGGGACUUCUUAGGAUCCUUCACUCUUAGCAUCGUUUGCUGCAGUAGAAACAACAGAGGAUUGAGCAUCA
B18: chr16:94651144:94651145:+_ENSMUSG00000040785_ENSMUST00000117648|mus_hu|mus_mus_mus_hu_True|8_18 (ssRNA)
RNA: GGGAGUUCUACAGUCCGACGAUCAUUUUCUUGAAUCAAGUGGCGAAUAACAUAGUCCACUGCUUCAUUUAGAAAAUUUCUGCUAGAAAAACAGGUUGUAUAGUCUUCUGUGCUCAAAACCUUCCAAGAGAGCAGCUCUUUGAGCAACAGAGGAUUGAGCAUCA
B19: chr14:76904430:76904431:+_ENSMUSG00000022010_ENSMUST00000022587|mus_mus|mus_mus_mus_hu_True|78_78 (ssRNA)
RNA: GGGAGUUCUACAGUCCGACGAUCUGCAGCCAAAAACACCCUCGUGGAAAAAAAGAGCAAGCUCCAGCAGCCUUGUAUAAGCUAGAUAAAAUCUUCUGGCUUUCCGCAGCCCAGGGAGAAACAGAAAACGGCAGCCCUAAUUUACAACAGAGGAUUGAGCAUCA
B20: chr2:232320318:232320319:-_ENSG00000115053_ENST00000322723|hu_hu|hu_hu_hu_mus_True|68_78 (ssRNA)
RNA: GGGAGUUCUACAGUCCGACGAUCACUAUUAAAGUCUACAAAACCAAACCCUUUGGAGGACCCAGUUUCCCGGUCAGUGACUAUUCUUGCACGAACAGAGCCCUCAAAUGAUUCUUUUAAGGUCUCUUCAGUGGUAUCCUCAGACAACAGAGGAUUGAGCAUCA
B21: chr6:133138135:133138136:+_ENSG00000112306_ENST00000230050|hu_hu|FALSE|FALSE (ssRNA)
RNA: GGGAGUUCUACAGUCCGACGAUCAACCACUUUACGGGGUUUCCCCUCUCUGUCAAUUUUACAAAGGCCUACCCAUUCUCCUAGUUUCUUGUUGUCAUCAACCUUAAUUAGGUUGAUUUGGUGUUCAGCACAAAGGGCCUCCACCAACAGAGGAUUGAGCAUCA
B22: chr3:9792807:9792808:+_ENSG00000114026_ENST00000339511|hu_hu|FALSE|FALSE (ssRNA)
RNA: GGGAGUUCUACAGUCCGACGAUCAGCCACCUCUUGGAAGUGGGAGUCCACGGAACCCCAGUGGUGAUACAGUUGAGCCAGGGUAACAUCUAGCUGGAAGUACUUGCGCACGGCCUCCAGCUCGUCUGGUGUGGGCCUGCUAGCCAACAGAGGAUUGAGCAUCA

Target: T1, UNK ZnF1-3 (human, UniProt Q9C0B0 31-174)
T1 sequence: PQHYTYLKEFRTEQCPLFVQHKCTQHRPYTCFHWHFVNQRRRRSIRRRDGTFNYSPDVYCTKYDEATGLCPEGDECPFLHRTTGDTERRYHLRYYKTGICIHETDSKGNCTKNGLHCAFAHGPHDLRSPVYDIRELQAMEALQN
Test: nsRBNS (natural sequence RNA bind-n-seq); RBNS binding buffer (assumed for nsRBNS): 25 mM Tris pH 7.5, 150 mM KCl, 3 mM MgCl2, 0.01% Triton X-100, 500 ug/ml BSA, 20 U/ml SUPERase-In, 4 C; UNK is unkempt and MSI1 is Musashi-1; names of the RNAs are library labels; protein concentration not given here; high values mean tight binding

Row | Binder | binding signal [enrichment R]
1 | B1 | 1.37
2 | B2 | 0.525
3 | B3 | 0.856
4 | B4 | 0.573
5 | B5 | 0.951
6 | B6 | 1.26
7 | B7 | 1.17
8 | B8 | 0.689
9 | B9 | 0.65
10 | B10 | 0.879
11 | B11 | 1.03
12 | B12 | 1.69
13 | B13 | 0.689
14 | B14 | 0.485
15 | B15 | 2.23
16 | B16 | 0.588
17 | B17 | 0.494
18 | B18 | 0.819
19 | B19 | 2.26
20 | B20 | 0.502
21 | B21 | 0.63
22 | B22 | 1.85
